Measured values from publication PMC4336329 (PLoS ONE, 2015).
Out of some 310,000 compounds screened, about 2,200 (0.71%) showed an effect of 50% or more. Effects have a minus sign here. This is one part of the list.

Each compound was assayed against human ether-à-go-go-related gene (hERG) potassium channel (human, UniProt Q12809) (assay: primary screen, population patch clamp on CHO cells stably expressing hERG).
Sequence of human ether-à-go-go-related gene (hERG) potassium channel (Q12809 whole entry, looked up): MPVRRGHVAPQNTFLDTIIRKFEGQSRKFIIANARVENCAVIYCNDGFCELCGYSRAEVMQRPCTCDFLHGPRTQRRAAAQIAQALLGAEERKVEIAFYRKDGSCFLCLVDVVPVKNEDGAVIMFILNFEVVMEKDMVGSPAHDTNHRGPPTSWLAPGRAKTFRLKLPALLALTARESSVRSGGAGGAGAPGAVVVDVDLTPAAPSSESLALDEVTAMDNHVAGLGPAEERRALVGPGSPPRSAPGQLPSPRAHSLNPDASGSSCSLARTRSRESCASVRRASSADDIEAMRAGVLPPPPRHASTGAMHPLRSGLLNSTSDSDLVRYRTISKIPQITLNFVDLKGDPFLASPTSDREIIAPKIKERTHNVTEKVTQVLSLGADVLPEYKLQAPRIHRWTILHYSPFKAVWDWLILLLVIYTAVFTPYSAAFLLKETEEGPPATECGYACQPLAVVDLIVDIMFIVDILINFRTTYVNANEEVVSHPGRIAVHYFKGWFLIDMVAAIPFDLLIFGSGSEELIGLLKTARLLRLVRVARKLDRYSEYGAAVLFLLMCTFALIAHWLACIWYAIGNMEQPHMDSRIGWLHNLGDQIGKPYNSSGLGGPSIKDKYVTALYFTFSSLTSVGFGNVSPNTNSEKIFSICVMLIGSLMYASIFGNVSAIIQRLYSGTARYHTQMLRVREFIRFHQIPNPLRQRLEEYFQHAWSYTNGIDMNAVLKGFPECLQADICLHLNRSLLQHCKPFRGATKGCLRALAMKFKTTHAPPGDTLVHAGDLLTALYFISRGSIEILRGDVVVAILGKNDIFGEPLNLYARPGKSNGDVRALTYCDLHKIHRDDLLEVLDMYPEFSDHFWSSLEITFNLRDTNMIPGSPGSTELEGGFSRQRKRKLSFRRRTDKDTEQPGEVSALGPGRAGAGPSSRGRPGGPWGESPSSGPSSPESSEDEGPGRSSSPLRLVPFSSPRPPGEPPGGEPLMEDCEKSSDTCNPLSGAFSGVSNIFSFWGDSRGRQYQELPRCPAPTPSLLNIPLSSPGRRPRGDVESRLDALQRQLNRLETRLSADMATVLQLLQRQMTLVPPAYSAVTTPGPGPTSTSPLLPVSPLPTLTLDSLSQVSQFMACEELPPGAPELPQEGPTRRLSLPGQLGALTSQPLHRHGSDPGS
For `CCOCc1nnc(NC(=O)COC)s1`, the “hERG current change (%, negative = inhibition) at 1uM” value was 6.03%.
For `Cc1ccc(S(=O)(=O)CCC(=O)c2ccc(O)cc2O)cc1`, the “hERG current change (%, negative = inhibition) at 1uM” value was 1.79%.
`COCCOC(=O)/C(C#N)=C/c1cn(Cc2ccccc2)nc1-c1cccnc1` was tested, and the “hERG current change (%, negative = inhibition) at 1uM” value was -17.2%.
In the case of `CCOc1ccc(NC(=S)NCCCc2ccccc2)cc1`, the “hERG current change (%, negative = inhibition) at 1uM” value is reported as 7.24%.
For `Cc1ccc(CNC(=O)CSc2c3c(nc4ccc(Cl)cc24)CCCC3)o1`, the “hERG current change (%, negative = inhibition) at 1uM” value was 4.68%.
For `CCCn1c(N)c(C(=O)CSc2n[nH]c(-c3ccccc3F)n2)c(=O)n(C)c1=O`, the “hERG current change (%, negative = inhibition) at 1uM” value was -4.23%.
`CN1/C(=C/C(=O)c2ccc(Cl)cc2)Sc2cc3c(cc21)OCO3` was tested, and the “hERG current change (%, negative = inhibition) at 1uM” value was 8.95%.
With `CCOc1ccc(-c2cc(N)n(S(=O)(=O)c3cccc4nsnc34)n2)cc1` the “hERG current change (%, negative = inhibition) at 1uM” value was 4.69%.
`CCCCc1cc(=O)oc2cc(C)cc(OC(C)C(=O)NCC3CCC(C(=O)O)CC3)c12` (stereo not shown) was tested, and the “hERG current change (%, negative = inhibition) at 1uM” value was 12.5%.
`OC(COC(c1ccccc1)c1ccccc1)CN1CCOCC1` (stereo not shown) was tested, and the “hERG current change (%, negative = inhibition) at 1uM” value was 5.61%.
For `COc1ccc(C(C(=O)NCCC(C)C)N(CCN2CCOCC2)C(=O)Cn2nnc3ccccc32)c(OC)c1` (stereo not shown), the “hERG current change (%, negative = inhibition) at 1uM” value was 7.79%.
`CCN1CCN(c2nc3c(C)cccn3c(=O)c2/C=C(\C#N)S(=O)(=O)c2ccc(Cl)cc2)CC1` was tested, and the “hERG current change (%, negative = inhibition) at 1uM” value was 5.85%.
`COc1cc(NC(=O)C2=C(N3CCOCC3)/C(=C/c3ccc(Cl)cc3)CC2)cc(OC)c1OC` was tested, and the “hERG current change (%, negative = inhibition) at 1uM” value was 9.72%.
`COc1ccc(CC(=O)NCc2nn(-c3ccccc3)nc2C)cc1OC` was tested, and the “hERG current change (%, negative = inhibition) at 1uM” value was 11%.
With `CCN1C(=O)CC(C(=O)O)SC1=Nc1ccc(OC)cc1` (stereo not shown) the “hERG current change (%, negative = inhibition) at 1uM” value was 10.1%.
With `CN(C)CCCN(CCCNC(=O)/C=N/O)Cc1ccccc1` the “hERG current change (%, negative = inhibition) at 1uM” value was 6.6%.
`O=C(CNS(=O)(=O)c1ccc(F)cc1)N1CCN(c2ccccc2)CC1` was tested, and the “hERG current change (%, negative = inhibition) at 1uM” value was 6.69%.
In the case of `CCCC1CC(C)(/C(C)=N\NC(N)=S)OC1=O` (stereo not shown), the “hERG current change (%, negative = inhibition) at 1uM” value is reported as 6.17%.
In the case of `COc1ccccc1/C=C1/C(=N/O)C2CCN1CC2`, the “hERG current change (%, negative = inhibition) at 1uM” value is reported as 4.84%.
`CCCCn1c(O)c(C(C)=NCc2ccc3c(c2)OCO3)c(=O)[nH]c1=O` was tested, and the “hERG current change (%, negative = inhibition) at 1uM” value was 4.25%.
`Cc1cc(NC(=O)/C=C/c2ccc(F)cc2)n(-c2nc3ccccc3[nH]2)n1` was tested, and the “hERG current change (%, negative = inhibition) at 1uM” value was 3.2%.
`O=C(Nc1ccc(OC(F)(F)F)cc1)c1ccc2ccccc2n1` was tested, and the “hERG current change (%, negative = inhibition) at 1uM” value was 15.9%.
`CCCC(=O)C1=C(O)C(C(=O)OC)C(C)(C)CC1=NCCCCCC(=O)O` (stereo not shown) was tested, and the “hERG current change (%, negative = inhibition) at 1uM” value was 5.95%.
For `O=C(O)C(Cc1ccccc1)N1Cc2ccccc2C1=O` (stereo not shown), the “hERG current change (%, negative = inhibition) at 1uM” value was 8.5%.
For `O=S(=O)(Nc1ccccc1)c1ccc(-c2csnn2)cc1`, the “hERG current change (%, negative = inhibition) at 1uM” value was 11.5%.
In the case of `COC(=O)c1ccccc1NC(=S)N1CCN(c2ccccc2)CC1`, the “hERG current change (%, negative = inhibition) at 1uM” value is reported as 5.23%.
`CC(C)(C)CC(=O)NC(=S)Nc1ccccc1C(F)(F)F` was tested, and the “hERG current change (%, negative = inhibition) at 1uM” value was -4.46%.
With `CCN(CC)c1ccc(C=NCCc2ccc(S(N)(=O)=O)cc2)cc1` the “hERG current change (%, negative = inhibition) at 1uM” value was 11.1%.
For `COc1ccc(Cl)cc1Nc1nc(N)c2ccccc2n1.Cl`, the “hERG current change (%, negative = inhibition) at 1uM” value was 14%.
`CCOC(=O)C1C(C)=CC(=O)CC1c1ccco1` (stereo not shown) was tested, and the “hERG current change (%, negative = inhibition) at 1uM” value was 19.2%.
`CN(C)S(=O)(=O)c1c(Cl)cccc1Cl` was tested, and the “hERG current change (%, negative = inhibition) at 1uM” value was 10.4%.
In the case of `CCCOc1ccc(C2C(=O)N(C3CCCCC3)CC(=O)N2CCCOCC)cc1OC` (stereo not shown), the “hERG current change (%, negative = inhibition) at 1uM” value is reported as 3.83%.
With `Cc1ccc(C2=NS(=O)(=O)N(C)C(C(=O)Nc3cc(C)n(CC(=O)N4CCCCC4)n3)=C2)cc1` the “hERG current change (%, negative = inhibition) at 1uM” value was 14.4%.
In the case of `CC(C)CCC(CCN1CCOCC1)c1ccc2c(c1)OCO2.Cl` (stereo not shown), the “hERG current change (%, negative = inhibition) at 1uM” value is reported as -76.8%.
`Cc1cccc(-n2c(=S)[nH]c3c(oc4ccccc43)c2=O)c1` was tested, and the “hERG current change (%, negative = inhibition) at 1uM” value was 14.6%.
`CN(C)C(=S)Nc1cccc(C(F)(F)F)c1` was tested, and the “hERG current change (%, negative = inhibition) at 1uM” value was 1.12%.
With `N#Cc1ccccc1S(=O)(=O)c1ccccc1C(=O)Nc1ccccc1` the “hERG current change (%, negative = inhibition) at 1uM” value was 12.5%.
`O=C(O)C1CCCN1C(=O)Nc1ccccc1` (stereo not shown) was tested, and the “hERG current change (%, negative = inhibition) at 1uM” value was 13.2%.
With `CN(C)CCNC(=O)c1ccccc1-c1cc2ccccc2c(=O)o1` the “hERG current change (%, negative = inhibition) at 1uM” value was 1.4%.
`O=C(Nc1nc(-c2ccc(-c3ccccc3)cc2)cs1)c1cc([N+](=O)[O-])ccc1N1CCOCC1` was tested, and the “hERG current change (%, negative = inhibition) at 1uM” value was 6.31%.
For `COc1ccc2cc(C(=O)/C=C/c3cc(OC)c(OC)c(OC)c3)ccc2c1`, the “hERG current change (%, negative = inhibition) at 1uM” value was 15.4%.
With `CC(C)c1nnc(NC(=O)C2CCN(c3cnccn3)CC2)s1` the “hERG current change (%, negative = inhibition) at 1uM” value was 0.597%.
With `COc1cccc(NC(=O)N2CCc3ccccc3C2)c1` the “hERG current change (%, negative = inhibition) at 1uM” value was 20.5%.
`CCN(CC)CCN1C(=O)C(=O)/C(=C(/O)c2c(C)[nH]c(C(=O)OC)c2C)C1c1ccco1` (stereo not shown) was tested, and the “hERG current change (%, negative = inhibition) at 1uM” value was 2.31%.
For `Cc1ccc(CCn2c3c(c4ccccc42)CN(C)CC3)cn1`, the “hERG current change (%, negative = inhibition) at 1uM” value was -1.37%.
With `Cc1onc(C(=O)NC(C)c2ccccc2)c1[N+](=O)[O-]` (stereo not shown) the “hERG current change (%, negative = inhibition) at 1uM” value was 5.51%.
`CN(CC(=O)Nc1cccc(F)c1)C(=O)c1ccc2c(c1)S(=O)(=O)N=C1CCCCCN12` was tested, and the “hERG current change (%, negative = inhibition) at 1uM” value was 19.2%.
`Cc1nc(NC(=O)c2ccc(Br)s2)sc1C(=O)N(C)C` was tested, and the “hERG current change (%, negative = inhibition) at 1uM” value was -1.48%.
`COCCn1nnnc1C(C(C)C)N1CCSCC1.Cl` (stereo not shown) was tested, and the “hERG current change (%, negative = inhibition) at 1uM” value was 59.7%.
`O=C(Cn1c(-c2ccccc2)c[n+]2ccsc12)c1ccccc1.[Br-]` was tested, and the “hERG current change (%, negative = inhibition) at 1uM” value was -0.507%.
For `O=C(CCN1C(=O)c2cccc3cccc(c23)C1=O)Nc1ccon1`, the “hERG current change (%, negative = inhibition) at 1uM” value was 8.6%.
For `O=C(/C=C/Nc1nccs1)C(F)(F)Cl`, the “hERG current change (%, negative = inhibition) at 1uM” value was 11.9%.
In the case of `CCCN1CCC(=O)N(CCSc2ccccc2)CC1`, the “hERG current change (%, negative = inhibition) at 1uM” value is reported as 6.94%.
In the case of `COc1ccc(C2=CC(c3ccc(OC)c(OC)c3)n3nnnc3N2)c(OC)c1` (stereo not shown), the “hERG current change (%, negative = inhibition) at 1uM” value is reported as 6.04%.
With `Cn1c(Cn2c(=O)sc3ccccc32)nnc1SCC(=O)NC1CCCCC1` the “hERG current change (%, negative = inhibition) at 1uM” value was 14.9%.
In the case of `Nc1n[nH]c(-c2cccc([N+](=O)[O-])c2)n1`, the “hERG current change (%, negative = inhibition) at 1uM” value is reported as 14.1%.
With `O=Cc1ccc(OCC(=O)Nc2ccccc2C(F)(F)F)cc1` the “hERG current change (%, negative = inhibition) at 1uM” value was 6.83%.
`N#Cc1cc([N+](=O)[O-])cnc1N(CCO)CCO` was tested, and the “hERG current change (%, negative = inhibition) at 1uM” value was 9.17%.
